Experimental data reported in publication PMC6919601, “Identification of Plasmodium dipeptidyl aminopeptidase allosteric inhibitors by high throughput screening” (PLoS ONE, 2019).
Among all 110,000 compounds or so, about 230 (0.21%) showed an effect of 50% or more. The list shows a part of the results.

Each compound was assayed against DPAP1 (Plasmodium falciparum, UniProt Q8IIJ9) (assay: primary screen, percent inhibition; read by cleavage of a fluorogenic dipeptide substrate; higher = more effect of the substance).
Chain of DPAP1 (Q8IIJ9 whole entry, looked up): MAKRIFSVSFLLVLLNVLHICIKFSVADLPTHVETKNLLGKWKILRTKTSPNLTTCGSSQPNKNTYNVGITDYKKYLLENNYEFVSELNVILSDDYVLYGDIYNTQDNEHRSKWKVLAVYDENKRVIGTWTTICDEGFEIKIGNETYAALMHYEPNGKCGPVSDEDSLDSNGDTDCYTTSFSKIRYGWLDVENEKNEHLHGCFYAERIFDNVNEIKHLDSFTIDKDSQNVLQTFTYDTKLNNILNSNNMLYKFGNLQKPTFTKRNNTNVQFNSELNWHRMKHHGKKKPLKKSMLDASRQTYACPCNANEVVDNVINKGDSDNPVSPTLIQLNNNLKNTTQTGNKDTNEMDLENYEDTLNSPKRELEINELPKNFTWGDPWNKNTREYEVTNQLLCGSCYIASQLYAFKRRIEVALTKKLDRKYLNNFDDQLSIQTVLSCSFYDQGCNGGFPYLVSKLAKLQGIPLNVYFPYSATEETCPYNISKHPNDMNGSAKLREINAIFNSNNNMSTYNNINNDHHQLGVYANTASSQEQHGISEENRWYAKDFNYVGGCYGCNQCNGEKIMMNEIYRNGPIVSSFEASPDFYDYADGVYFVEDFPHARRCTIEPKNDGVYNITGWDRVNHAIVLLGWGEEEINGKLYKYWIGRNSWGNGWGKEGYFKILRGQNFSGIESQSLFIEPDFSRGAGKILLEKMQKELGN
Set-up: species or system P. falciparum D10 trophozoite lysates; single well
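Further: 30 min substrate incubation versus DMSO and 10 µM JCP410 controls.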

SMILES	% Inhibition @ 10 uM
O=C(c1ccccc1[N+](=O)[O-])N1CCc2ccccc2C1	2.13%
COc1ccc(-c2noc(N3CC=C(c4ccccc4)CC3)n2)cc1	-8.92%
CCN1CCN(Cc2c(Cl)cccc2Cl)CC1	-3.57%
COc1ccc(OCCn2nnc3sc4c(c3c2=O)CCC(C)C4)cc1 (stereo not shown)	2.41%
CN1CCN(CCNC(=O)Cn2ncc3c4ccccc4n(C)c3c2=O)CC1	4.95%
O=C1CCCN1CCCNc1ncnc2c1cnn2-c1ccccc1	2.4%
CCN1CCN(c2ncnc3c2cnn3C)CC1	-4.46%
CC(C)Cc1cc(-c2ccco2)c(C#N)c(N)n1	-2.42%
CCOc1ccc(NC(=O)CC2Sc3ccccc3NC2=O)cc1 (stereo not shown)	-2.17%
CCCCNC(=O)c1cc2c(-c3ccccc3F)nn(C)c2s1	-3.23%
Oc1nnc(NCc2nc3cccnc3[nH]2)c2ccccc12	1.22%
COc1cc(C)c(-c2cc(C(=O)O)c(C)o2)cc1C(C)C	1.32%
CC(C)CN1C(=O)c2ccccc2C(C(=O)NCC2CCCO2)C1c1cccs1 (stereo not shown)	0.867%
COc1cc(C(=O)N2CCN(Cc3ccc(Br)cc3)CC2)cc(OC)c1OC	-4.6%
CCCC1=C(C(=O)OCC)C(c2ccc(Cl)cc2Cl)NC(=O)N1 (stereo not shown)	0.0538%
CCOc1ccc(C(=O)C[n+]2c(C)n(C)c3ccccc32)cc1	-2.41%
COc1ccc(/C=C2\C(=O)NC(=O)N(c3ccccc3)C2=O)cc1	2.51%
C/C(=N/O)c1ccc(NS(C)(=O)=O)cc1	-6.09%
O=C(Nc1ccncc1)c1ccc(-n2nc(C(F)(F)F)c3c2CCCC3)cc1	0.323%
CC(C)CNS(=O)(=O)c1ccc(CCC(=O)Nc2ccc(C(F)(F)F)cc2)cc1	2.82%
CC(C)CCN1CC(C(=O)NC2CCCCCC2)CC1=O (stereo not shown)	-3.12%
CCSc1c(-c2ccccc2)nc2ccccc2c1C(=O)O	4.3%

SMILES	% Inhibition @ 10 uM
CCCN1CCC(NCCc2ccc(Cl)cc2Cl)CC1	-1.56%
Cc1c(C)n(CC(O)CNC(CO)(CO)CO)c2ccccc12 (stereo not shown)	-1.81%
O=C(CSc1nc(O)cc(-c2ccccc2)n1)N1CCc2ccccc2C1	3.91%
Cc1oc(-c2ccccc2Cl)nc1CS(=O)(=O)CC(=O)NCCC1=CCCCC1	-6.52%
CCCCSCCCNC(=O)c1ccc(CS(=O)(=O)c2ccc(Cl)cc2)o1	5.47%
N=C(NOC(=O)COc1ccc(Cl)cc1Cl)c1ccccn1	0.484%
Cc1ccc(-c2c(NCC3CCN(Cc4cccc(C)c4)CC3)c(=O)c2=O)cc1	-0.255%
Cc1ccc(OCc2nc(-c3cccnc3)no2)c(Br)c1	-4.61%
O=C(/C=C/c1ccccc1)Nc1ccc(C(=O)O)cc1	-4.94%
COC(=O)C(Cc1c[nH]c2ccccc12)NC(=O)c1ccc(-c2ccccc2)cc1 (stereo not shown)	1.7%
CCN1CCN(c2nc3ccc(C(=O)c4ccccc4)cc3n3cnnc23)CC1	-6.58%
CCN1C(=O)/C(=C\c2ccc(N(C)C)cc2)S/C1=N\c1ccccc1	0.00477%
COc1cccc(-c2ccc3c(N)c(C(=O)Nc4ccc(C(C)=O)cc4)sc3n2)c1	10.1%
CCOc1ccc(N2CC(C(=O)Nc3ccc(N(C)C)cc3)CC2=O)cc1 (stereo not shown)	3.62%
CN1CCN(C(=O)C2CC(c3ccc(F)cc3)=NO2)CC1 (stereo not shown)	-0.431%
N#CCSc1nc2ccccc2c(=O)n1-c1ccccc1	-7.16%
Cc1c(C(=O)NCc2ccc(F)cc2)sc2nc3n(c(=O)c12)CCCCC3	-0.788%
CCCCOc1ccc(C(=O)NC(C)C2COc3ccccc3O2)cc1 (stereo not shown)	-1.06%
CC(NC(=O)C1CCN(c2ncccn2)CC1)c1ccncc1 (stereo not shown)	2.41%
O=C(NCCc1ccc(Cl)cc1)c1cc(S(=O)(=O)N2CCCCC2)c[nH]1	-6.87%
CC(C)C(Nc1c([N+](=O)[O-])cc(C(F)(F)F)cc1[N+](=O)[O-])C(=O)O (stereo not shown)	-2.62%
COc1ccc(-c2noc(-c3ccc(Cl)cc3Cl)n2)cc1	-0.48%

SMILES	% Inhibition @ 10 uM
Cc1c(C)n(C)c2ccc(C(=O)Nc3ccc(S(=O)(=O)N4CCCC4)cc3)cc12	-3.19%
COCCCNC(=O)c1cc2c(=O)n3ccccc3nc2n(CC2CCCO2)c1=N (stereo not shown)	-1.47%
CCCCCNC(=O)C1CC(C)=C(C)CC1C(=O)O (stereo not shown)	-8.3%
Cc1c(CNCCc2cccs2)c(C(=O)O)c(C)n1Cc1ccccc1F	-5.49%
CN1CC[C@](O)(c2ccccc2)[C@H]2CCCC[C@H]21	2.47%
O=C(O)CCc1nc2ncccc2c(=O)n1Cc1ccccc1Cl	-0.72%
CCn1c(C)c(C2N3CC4(C)CN2CC(c2ccccc2)(C3)C4=O)c2ccccc21 (stereo not shown)	-3.24%
CCOC(=O)c1cc2c(=O)n3ccccc3nc2n(C(C)C)/c1=N\C(=O)c1ccc(F)cc1	-1.3%
CCC1(C)[N+]([O-])=C(C)C(c2ccccc2)=[N+]1[O-] (stereo not shown)	1.63%
CC(=O)Nc1ccc(NC(=O)c2ccco2)cc1	-4.26%
CCOc1ccc(CNC(=O)C2=C(C)C(=O)OC23CCN(S(=O)(=O)CC)CC3)cc1	-1.95%
CC1(C)CC2CC(C)(CN2C2CC(=O)N(c3ccc(Br)cc3)C2=O)C1 (stereo not shown)	-5.69%
CC(C)CCNC(=O)C1CCN(S(C)(=O)=O)CC1	3.66%
Cn1c(=O)c2c(nc(SC(c3ccccc3)c3ccc(Cl)cc3)n2C)n(C)c1=O (stereo not shown)	-2.37%
O=C(CCCOc1ccc(Cl)cc1Cl)NC1CCCCCC1	3.48%
COc1ccc(C(=O)NCc2cn3cccc(C)c3n2)c(OC)c1	0.00665%
Cc1ccc(-n2nc(C)c3c2OC(N)=C(C#N)C3c2ccc(F)cc2F)cc1 (stereo not shown)	-4.57%
COc1cc(OC)cc(OCC(O)Cn2c(C)nc3ccccc32)c1 (stereo not shown)	5.5%
COc1cc(/C=C2/C(=N)N3OC(C)=CC3=NC2=O)ccc1OCC(C)C	2%
CCN1C(=O)CN(c2ccccc2)C1=S	-4.06%
